Measured values taken from article PMC4336329 (PLoS ONE, 2015).
The whole screen tested about 310,000 compounds, of which about 2,200 (0.71%) showed an effect of 50% or more. Effects have a minus sign here. This is one part of the list.

target: human ether-à-go-go-related gene (hERG) potassium channel (human, UniProt Q12809); test: primary screen, population patch clamp on CHO cells stably expressing hERG
Sequence (Q12809 whole entry, looked up): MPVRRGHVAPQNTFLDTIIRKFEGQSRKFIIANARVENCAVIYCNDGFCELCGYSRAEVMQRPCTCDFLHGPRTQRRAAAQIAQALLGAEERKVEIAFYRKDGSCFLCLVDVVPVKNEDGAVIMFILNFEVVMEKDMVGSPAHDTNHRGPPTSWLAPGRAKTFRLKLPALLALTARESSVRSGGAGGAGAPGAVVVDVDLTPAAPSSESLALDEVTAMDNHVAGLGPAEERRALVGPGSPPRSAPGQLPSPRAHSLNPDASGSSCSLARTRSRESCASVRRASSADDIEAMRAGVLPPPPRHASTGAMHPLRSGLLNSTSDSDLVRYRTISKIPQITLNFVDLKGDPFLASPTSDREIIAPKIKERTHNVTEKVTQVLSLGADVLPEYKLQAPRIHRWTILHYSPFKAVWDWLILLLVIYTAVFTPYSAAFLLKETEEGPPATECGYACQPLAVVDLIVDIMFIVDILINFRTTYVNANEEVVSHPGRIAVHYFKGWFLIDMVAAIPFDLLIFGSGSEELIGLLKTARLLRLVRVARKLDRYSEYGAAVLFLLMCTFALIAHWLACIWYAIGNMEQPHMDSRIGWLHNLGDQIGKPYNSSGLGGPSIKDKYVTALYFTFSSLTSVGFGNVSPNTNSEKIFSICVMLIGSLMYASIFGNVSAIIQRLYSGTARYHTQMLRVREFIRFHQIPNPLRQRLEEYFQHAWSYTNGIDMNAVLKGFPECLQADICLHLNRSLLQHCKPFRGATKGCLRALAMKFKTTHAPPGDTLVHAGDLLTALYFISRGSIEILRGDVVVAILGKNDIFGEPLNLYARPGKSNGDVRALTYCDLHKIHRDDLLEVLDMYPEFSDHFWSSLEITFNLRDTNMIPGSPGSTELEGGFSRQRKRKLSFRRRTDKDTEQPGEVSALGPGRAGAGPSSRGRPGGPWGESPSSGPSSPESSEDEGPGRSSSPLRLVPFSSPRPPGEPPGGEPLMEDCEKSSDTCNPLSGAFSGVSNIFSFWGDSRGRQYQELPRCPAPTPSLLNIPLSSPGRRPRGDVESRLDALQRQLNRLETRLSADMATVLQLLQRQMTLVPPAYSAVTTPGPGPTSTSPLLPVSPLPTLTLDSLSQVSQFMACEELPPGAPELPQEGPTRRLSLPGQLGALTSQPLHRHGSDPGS

| SMILES | hERG current change (%, negative = inhibition) at 1uM [%] |
| --- | --- |
| CC1Cc2ccccc2N1C(=O)CSc1ccccc1 (stereo not drawn) | 5.02 |
| O=S(=O)(c1ccc(Br)s1)n1cccn1 | 0.937 |
| O=C(CN1CC=C(c2ccccc2)CC1)NC(=O)NCc1ccccc1 | 9.11 |
| Cc1ccc(-c2cc[n+](Cc3ccccc3)cc2)cc1.[Cl-] | 0.359 |
| COc1cc(-c2nc3cnccn3c2Nc2ccc(C(C)C)cc2)ccc1O | 22.8 |
| CCC(C)C(=O)Nc1nc(C)c(-c2csc(Nc3ccccc3OC)n2)s1 (stereo not drawn) | 17.1 |
| O=C(NCc1cccc(F)c1)c1cccc(OC2CCN(C(=O)C3CC3)CC2)c1 | -5.87 |
| O=C(O)c1cccnc1SC1CC(=O)N(c2ccccc2)C1=O (stereo not drawn) | 19.8 |
| Cc1c(NC(=O)CCC2CCCCC2)cc(C(=O)N2CCOCC2)cc1[N+](=O)[O-] | 8.15 |
| CN(C)C(CNC(=O)CCc1nc2cc(Cl)ccc2n(Cc2ccccc2)c1=O)c1ccccc1 (stereo not drawn) | -34.7 |
| CCN(CC(=O)NCc1cccs1)C(=O)c1cccc(S(=O)(=O)NCc2ccccc2)c1 | -8.51 |
| Cc1[nH]c2ccccc2c1C(=O)C(=O)N1CCN(c2ccccc2)CC1 | 10 |
| COc1ccc(OC)c(N(CC(=O)N2CCC(C)CC2)S(=O)(=O)c2ccc(OC)c(OC)c2)c1 | 3.65 |
| c1cnc(NC2CCCCCC2)nc1 | 4.67 |
| Nc1ncc2c(n1)-c1ccccc1CC2 | 9.68 |
| CCCCOc1c(C(=O)Nc2ccccc2)nnn1-c1ccccc1 | 4.41 |
| Cc1cccc(Cn2c(N3CCCCC3C)nc3c2c(=O)[nH]c(=O)n3C)c1 (stereo not drawn) | -18 |
| COc1ccccc1NS(=O)(=O)c1ccc(OC)c(OC)c1 | 2.13 |
| CCOc1ccc(-c2nc(CN(Cc3ccccc3)C[C@@H]3CCC(=O)N3)c(C)o2)cc1 | 3.39 |
| CCC1CCCCN1CCCNC(=O)c1ccc2c(c1)N(Cc1ccc(F)cc1)C(=O)c1ccccc1S2=O (stereo not drawn) | -13.7 |
| CC(C)c1ccc(C2(O)C(=O)Nc3cc(Br)ccc32)c(O)c1 (stereo not drawn) | 18.2 |
| O=C(NCCCN1CCCCC1)c1ccc(CS(=O)c2ccc(F)cc2)o1 (stereo not drawn) | 11.2 |
| CC(C)c1ccc(Cc2nnc(NCCCO)[nH]c2=O)cc1 | 17.4 |

| SMILES | hERG current change (%, negative = inhibition) at 1uM [%] |
| --- | --- |
| CCC12CN3CCN(CC(C3)/C1=N\NC(=O)c1ccc(F)cc1)C2 | 10.5 |
| Cc1ccc(C(=O)c2cc([N+](=O)[O-])ccc2N2CCCCC2)c(C)c1 | 8.61 |
| CCC(C)NC(=S)Nc1ccc2nc(N3CCOCC3)cc(C)c2c1 (stereo not drawn) | 5.7 |
| COc1ccc(/C=C2\N=C3CCCCCN3C2=O)cc1OC | 14.8 |
| O=C1c2cccnc2C(=O)N1Cc1ccc(F)cc1S(=O)(=O)NCc1ccco1 | 0.441 |
| CCOc1ccccc1N1CCN(S(=O)(=O)c2ccc(F)c(F)c2)CC1 | -7.84 |
| Cc1ccc(C(=O)N2CCN(c3cc4c(cc3[N+](=O)[O-])n(C)c(=O)n4C)CC2)cc1 | -18.1 |
| COc1cccc(CNC(=O)CSc2nc3ccc(C)cc3[nH]2)c1 | 14.2 |
| Cc1ccc(OCCC(=O)OCC(=O)NC(=O)NC2CCCCC2)cc1 | 14.2 |
| O=[N+]([O-])c1ccc(S(=O)(=O)Nc2ccc(-c3ccc(N4CCCC4)nn3)cc2)cc1 | 10.7 |
| CCCCn1c(-c2ccccc2)nc2c(=O)n(C)c(=O)[nH]c21 | 11.9 |
| COc1ccccc1NC(=O)CS(=O)(=O)c1cccc2nsnc12 | 7.21 |
| O=C(Cn1cc(C(=O)C2CC2)c2ccccc21)Nc1ccc(F)cc1 | -6.98 |
| O=C(Cn1cnc2ccccc2c1=O)Nc1ccc(S(=O)(=O)N2CCOCC2)cc1 | 16.8 |
| CCOC(=O)c1cc(-c2ccc(N3CCOCC3)cc2)nn1-c1ccccc1 | -0.567 |
| CS(=O)(=O)N(CC(=O)NN=C1CCCCCC1)c1ccc(Oc2ccccc2)cc1 | 17.8 |
| CC(=O)Nc1cc(NC(C)=O)cc(C(=O)OCC(=O)c2ccc3c(c2)OCO3)c1 | 10.9 |
| Nc1cc(N)nc(SCC(=O)NCc2ccco2)n1 | 4.79 |
| Cc1nn(Cc2ccc(F)cc2)c(C)c1NC(=O)CCCn1nc([N+](=O)[O-])cc1C | 10.7 |
| N#Cc1ccc(OCC(O)CN2CCN(CC(O)COc3ccc(C#N)cc3)CC2)cc1 (stereo not drawn) | -91.3 |
| CCCS(=O)(=O)N1CCN=C1SCc1cccc2ccccc12 | 3.2 |
| CCOC(=O)N1CCC(NS(=O)(=O)c2ccc(NC(C)=O)c(Cl)c2)CC1 | 15.5 |
| O=C(Nc1ccc(-n2cccc2)cc1)C1CC1 | 13.8 |

| SMILES | hERG current change (%, negative = inhibition) at 1uM [%] |
| --- | --- |
| O=C(c1ccc(S(=O)(=O)N2CCOCC2)cc1)N1CCCc2ccccc21 | 12 |
| O=C(CNC(=O)c1cccs1)OCC(=O)c1ccc(Br)cc1 | 9.68 |
| O=C(CC1SC(N2CCCCC2)=NC1=O)Nc1cccc(C(=O)O)c1 (stereo not drawn) | 3.53 |
| CCCCOc1ccc(C(=O)N/C(=C\c2cccc([N+](=O)[O-])c2)C(=O)OC(C)C)cc1 | 14.3 |
| COc1ccc(-n2cnc3c(sc4nccc(N(C)C)c43)c2=O)cc1 | 5.3 |
| Cc1cc(C)c(S(=O)(=O)NCC(CCC(=O)O)C(F)(F)F)c(C)c1 (stereo not drawn) | 8.25 |
| C(=N\c1nccs1)/c1cccnc1 | 0.901 |
| CC1(C)NC(=O)N(CC(O)CN2C(=O)NC(C)(C)C2=O)C1=O | 17.6 |
| N#Cc1c(Cl)nsc1NCCN1CCOCC1 | 13.8 |
| Cc1ccc(-n2nc3c(c2NC(=O)c2ccco2)CS(=O)C3)cc1 (stereo not drawn) | 11 |
| O=C(NC1CCN(Cc2ccccc2)CC1)c1ccc2c(c1)OCCCO2 | 2.08 |
| Cc1cc(C)c(NC(=O)CNC(=O)COC(=O)/C=C/c2cccs2)c(C)c1 | 4.77 |
| CN(Cc1ccccc1)S(=O)(=O)c1csc(C(N)=O)c1 | 4.39 |
| O=C(NNC(=O)c1ccncc1)c1ccccc1 | 13.4 |
| COc1cccc(N2CC(NS(=O)(=O)c3cccs3)CC2=O)c1 (stereo not drawn) | 14.7 |
| COC(=O)COc1ccc(Oc2nc(SC)nc(N(C)C)n2)nn1 | 6.18 |
| CCS(=O)(=O)Nc1ccc(-c2nnc(SCC(=O)OC)o2)cc1 | 13.5 |
| COc1ccc(-c2noc(CSc3nnc(-c4ccncc4)n3-c3ccc(F)cc3)n2)cc1OC | 2.83 |
| O=c1[nH]c2ccc(NS(=O)(=O)c3ccc([N+](=O)[O-])cc3)cc2[nH]1 | 6.41 |
| CC(Cc1cccs1)NC(=O)Nc1cccc(Cl)c1 (stereo not drawn) | 9.05 |
| Cc1ccc2cccc(OCc3cccc([N+](=O)[O-])c3)c2n1 | 7.24 |
| CCCn1c(CN2CCCCC2C)nc2c1c(=O)n(C)c(=O)n2C (stereo not drawn) | 9.55 |
| Cc1ccccc1-c1nnc(Cc2ccccc2)o1 | 2.27 |

| SMILES | hERG current change (%, negative = inhibition) at 1uM [%] |
| --- | --- |
| CC(NC(=O)C1CC12CCC2)c1ccccc1 (stereo not drawn) | 7.09 |
| COCCN(C(=O)C1CC1)c1nnc(-c2cccc(C)c2)s1 | 6.57 |
| O=C(NCCNc1ccc([N+](=O)[O-])cc1)c1ccccc1Br | -22.8 |
| CC(O)[C@H]1CNCCN1CC1(c2ccccc2)CC1 (stereo partly drawn) | 0.796 |
| O=S(=O)(NCC(c1cccnc1)N1CCOCC1)c1ccc(Cl)cc1 (stereo not drawn) | 14.8 |
| C=CCN(CC=C)C(=O)c1ccccc1NC(=O)c1ccccc1C | 4.72 |
| CCc1ccc(CNC(=O)CC2C(=O)NCCN2Cc2ccccc2F)nc1 (stereo not drawn) | 14 |
| O=S1(=O)CCO[C@H]2Cc3ccccc3[C@H]2N1Cc1ccccc1Br | 0.613 |
| O=C(CN1C(=O)NC(Cc2ccccc2)C1=O)Nc1ccc(OC(F)(F)F)cc1 (stereo not drawn) | 4.21 |
| Cc1cc(C)nc(OC(=O)c2c(Cl)cc(Cl)cc2Cl)n1 | 18.3 |
| C=CCn1c(SCC(=O)NC(=O)c2cccc([N+](=O)[O-])c2)nnc1-c1ccccc1 | 8.34 |
| CN(C)CCn1c(C(=O)Nc2ccccc2)cc2ccccc21.Cl | -33.1 |
| CCC(C(=O)Nc1ccc(OC)c(Cl)c1)c1ccccc1 (stereo not drawn) | 9.18 |
| Cc1ccc(-c2nn(-c3ccccc3)c3[nH]c(=O)c(CNCc4ccccc4)cc23)cc1 | 16.9 |
| O=C(Nc1cccc(Br)c1)c1ccc2c(c1)SC1=NS(=O)(=O)CCN12 | 7.1 |
| COC(=O)[C@H](Cc1ccccc1)NC(=O)NCc1ccccc1OC | 11.3 |
| NC(N)=NC(=O)c1nc(Cl)c(N)nc1N | 5.12 |
| Cc1ccc2c(c1)C(=O)CC1(CCC(C(C)(C)C)CC1)O2 (stereo not drawn) | 17.1 |
| Cc1ccc(CN2CCN(C3CSCCSC3)CC2CCO)cc1 (stereo not drawn) | -15.2 |
| Cc1cc(=O)c2c([nH]1)c(C)cc1[nH]c(C)c(C)c12 | 10.6 |
| Cc1cc(C=O)c(C)n1C1CC1 | 5.75 |
